Hit rate of the full screen: of about 410,000 compounds, about 850 (0.21%) were called active. This list was built around the results that the source calls inconclusive (neither active nor inactive); the mix of calls is not that of the screen. Calls follow the shape of the dose curve; as a rule, active = well fitted inhibition curve with a large enough effect; inconclusive = small, poorly fitted or top-dose-only effect, or another doubt; inactive = no such curve, though single readings can be large or run the other way. Potencies of inconclusive entries are left out as doubtful fits.
What follows are compounds tested against Glutaminase kidney isoform, mitochondrial (Homo sapiens) (UniProt O94925) (assay: qHTS for Inhibitors of Glutaminase (GLS)). Conditions: GLS enzymatic activity, qHTS titration; series mostly up to 45.5 µM.
Sequence of UniProt O94925 (O94925 whole entry, looked up, canonical isoform): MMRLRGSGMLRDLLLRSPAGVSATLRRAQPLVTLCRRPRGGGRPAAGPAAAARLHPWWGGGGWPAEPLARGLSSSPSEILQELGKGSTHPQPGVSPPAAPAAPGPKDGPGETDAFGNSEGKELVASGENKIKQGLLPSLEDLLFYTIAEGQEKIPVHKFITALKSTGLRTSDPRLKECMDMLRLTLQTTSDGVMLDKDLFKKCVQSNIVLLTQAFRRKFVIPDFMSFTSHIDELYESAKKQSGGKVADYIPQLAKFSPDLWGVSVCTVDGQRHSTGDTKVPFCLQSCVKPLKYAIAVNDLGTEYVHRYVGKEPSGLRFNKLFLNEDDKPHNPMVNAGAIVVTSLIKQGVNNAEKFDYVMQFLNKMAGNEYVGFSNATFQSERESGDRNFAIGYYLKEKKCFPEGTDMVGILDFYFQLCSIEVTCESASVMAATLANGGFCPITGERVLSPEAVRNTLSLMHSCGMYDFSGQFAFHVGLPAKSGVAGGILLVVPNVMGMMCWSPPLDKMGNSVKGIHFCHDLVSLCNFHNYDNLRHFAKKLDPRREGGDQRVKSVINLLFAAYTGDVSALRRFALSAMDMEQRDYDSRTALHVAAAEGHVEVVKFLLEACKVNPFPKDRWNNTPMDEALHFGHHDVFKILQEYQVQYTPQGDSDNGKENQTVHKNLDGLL
In short: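 Enzyme dispensed in phosphate buffer (45 mM, pH 8.2, 0.02% Tween-20), compounds pinned in, then 1 mM L-glutamine solution and the glutamate oxidase–HRP–Amplex Red mix added; fluorescence read immediately and again after 30 min at room temperature.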
With `CC1=NN(c2ccccc2)C(=O)/C1=C/c1c(O)n(-c2ccc(F)cc2)[nH]c1=O` the Potency was inconclusive [inhibitor, single point]. `CCOC(=O)C1=C(O)/C(=C/c2ccc(-c3ccccc3C(=O)O)o2)SC1=Nc1ccc(OC)cc1` was tested, and the Potency was inconclusive [inhibitor, single point]. With `CN(C)C(CNC(=O)c1ccc(OCc2cn3ccccc3n2)cc1)c1ccco1` (configuration not stated) the Potency was inconclusive [inhibitor, partial curve]. With `CN(C)/C=N/C1=C(C#N)C(c2cccs2)c2ccc3ccccc3c2O1` (configuration not stated) the Potency was inconclusive [inhibitor, partial curve]. With `Cc1nc(SCC(N)=O)c([N+](=O)[O-])[nH]1` the Potency was “inactive”. For `Cn1c(OCc2cccnc2)nc2c1c(=O)n(Cc1ccccc1)c(=O)n2C`, the Potency was inconclusive [inhibitor, single point]. For `Cc1ccc(-c2nnc(Nc3ccc4c(c3)OCO4)c3ccccc23)cc1S(=O)(=O)NC(C)C`, the Potency was inconclusive [inhibitor, single point]. For `C=C(C)CSc1nc2sc3c(c2c(=O)n1C1CCCCC1)CCN(C)C3`, the Potency was inconclusive [inhibitor, partial curve, poor fit]. With `CC(C)n1c(=O)c2oc3ccccc3c2n(CC(=O)Nc2ccccc2Cl)c1=O` the Potency was “inactive”. `CCC/C=N/Nc1nc2ccccc2s1` was tested, and the Potency was inconclusive [inhibitor, partial curve]. With `CC1CCCCC1NC(=O)c1ccc(S(=O)(=O)NNC(=O)c2ccncc2)cc1` (configuration not stated) the Potency was inconclusive [inhibitor, single point]. For `N#Cc1c(-c2ccccc2)nc(SCc2nc(N)nc(N3CCCCC3)n2)[nH]c1=O`, the Potency was inconclusive [inhibitor, single point]. `CCc1nnc(NC(=O)c2ccc(S(C)(=O)=O)cc2)s1` was tested, and the Potency was inconclusive [inhibitor, single point]. With `CC1CC(=O)Nc2ccccc2N1S(=O)(=O)c1ccc(Br)cc1` (configuration not stated) the Potency was inconclusive [inhibitor, single point]. In the case of `O=C1Nc2ccccc2/C1=N\N=C\c1ccc(O)c(O)c1`, the Potency is reported as inconclusive [inhibitor, single point]. In the case of `CCOC(=O)N1CCN(C(=O)CCSc2ccc(C)cc2)CC1`, the Potency is reported as inconclusive [inhibitor, single point]. With `Nc1ccc(-c2nc3ccc(N)cc3s2)cc1` the Potency was inconclusive [inhibitor, partial curve, poor fit]. `COc1ccc(NC(=O)CN(C)C(=O)c2cc(-c3ccco3)nc3ccccc23)cc1` was tested, and the Potency was inconclusive [inhibitor, partial curve]. With `O=C(Nc1cccnc1)c1cc2c(ccc3ccccc32)o1` the Potency was “inactive”. For `O=C(O)c1ccccc1-c1c2cc(I)c(=O)c(I)c-2oc2c(I)c(O)c(I)cc12`, the Potency was inconclusive [inhibitor, single point]. For `CCOC(=O)c1sc(N)c(C(=O)OC)c1C`, the Potency was inconclusive [inhibitor, single point]. In the case of `COCc1cc(=O)n2[nH]c(-c3ccsc3-n3c(C)ccc3C)cc2n1`, the Potency is reported as inconclusive [inhibitor, single point]. With `Cn1c(=O)c2[nH]c(-c3ccccc3Cl)c(O)c2n(C)c1=O` the Potency was active: 22.4 µM. `CC1c2ccccc2N(NC(=O)Cc2ccccc2)C1C` (configuration not stated) was tested, and the Potency was inconclusive [inhibitor, single point]. `O=S(=O)(Nc1ccccc1O)c1cccc2cccnc12` was tested, and the Potency was inconclusive [inhibitor, partial curve]. In the case of `O=C(CSc1nnc(-c2ccco2)c(-c2ccco2)n1)c1ccccc1`, the Potency is reported as “inactive”. With `CC1=C(C(N)=O)S(=O)(=O)c2ccccc21` the Potency was “inactive”. With `S=C(NCCc1ccccc1)N1CCC2CC1c1cc(-c3ccc4c(c3)OCO4)ccc12` (configuration not stated) the Potency was “inactive”. For `CC(=NNC(=S)N1CC2CCC(CC2)C1)c1cnccn1`, the Potency was “inactive”. For `CCOc1ccc(/C=C/C(=O)Nc2ccc(N3CCOCC3)cc2)cc1`, the Potency was inconclusive [inhibitor, single point]. In the case of `COc1c(Cl)cc(C(=O)NN)cc1Cl`, the Potency is reported as “inactive”. `O=c1c2c([N+](=O)[O-])cc([N+](=O)[O-])cc2sn1-c1ccc(Br)cc1` was tested, and the Potency was active: 11.2 µM. With `O=C(CN1C2CCCC1CC(NC(=O)c1ccco1)C2)Nc1ccccc1C(F)(F)F` (configuration not stated) the Potency was inconclusive [inhibitor, single point]. With `COc1ccc(N=C2NC(=O)C(CC(=O)NCCc3ccc(OC)c(OC)c3)S2)cc1` (configuration not stated) the Potency was “inactive”. `c1ccc(-c2cccc(-c3ccccn3)n2)nc1` was tested, and the Potency was “inactive”. With `CCOc1ccc(C2C(C(N)=O)=C(C)Nc3nc(SCc4ccccc4F)nn32)cc1` (configuration not stated) the Potency was “inactive”. `C/C(CC(=O)Nc1ccc(N(C)C)cc1)=N\NC(=O)c1ccncc1` was tested, and the Potency was inconclusive [inhibitor, partial curve, poor fit]. With `COc1ccc(C(=O)NCc2nnc(SCCOc3ccccc3)n2C)cc1` the Potency was inconclusive [inhibitor, single point]. `CCOC(=O)c1ccc(N2C(=O)CC(NNC(=O)c3ccc(Br)s3)C2=O)cc1` (configuration not stated) was tested, and the Potency was inconclusive [inhibitor, partial curve]. In the case of `COc1cc(C(=O)NCC2CCCO2)ccc1OCc1ccc(Cl)cc1` (configuration not stated), the Potency is reported as inconclusive [inhibitor, single point]. `Cc1ccccc1NC(=O)CN1CCN(Cc2ccccc2)CC1` was tested, and the Potency was “inactive”. For `O=C(Nc1cccc(C(=O)N2CCCC2)c1)C1CCCCC1`, the Potency was inconclusive [inhibitor, single point]. In the case of `CC(C)CC(=O)N/C(N)=N/c1nc2ccccc2o1`, the Potency is reported as inconclusive [inhibitor, partial curve, poor fit]. In the case of `O=C1c2cccc3cccc(c23)C(=O)N1c1ccc2ncccc2c1`, the Potency is reported as “inactive”. In the case of `N#C/C(=C\c1ccccc1)C(=O)NNS(=O)(=O)c1ccc(Br)cc1`, the Potency is reported as inconclusive [inhibitor, partial curve]. `COc1ccc(C(C)(C)C)cc1NC(=O)c1[nH]c(C)c(C(C)=O)c1C` was tested, and the Potency was “inactive”. With `COC(=O)[C@H](CC(C)C)N1Cc2cc(OC)cc(OC)c2-c2ccccc2S1(=O)=O` the Potency was inconclusive [inhibitor, partial curve, poor fit]. `CCN1CCN(CC(=O)Nc2cc(S(=O)(=O)N3CCCCC3)ccc2Cl)CC1` was tested, and the Potency was “inactive”. For `Cc1ccc(NC(=O)CCn2c(=O)c3cccn3c3ccccc32)c(C)c1`, the Potency was “inactive”. For `N#CC1(NC(=O)COC(=O)c2cc(O)c3ccccc3c2O)CCCCC1`, the Potency was inconclusive [inhibitor, partial curve]. `N#Cc1nc(-c2ccc(F)cc2)oc1N1CCCC1` was tested, and the Potency was “inactive”. With `O=C(CSc1nc(-c2ccccc2)nc2c1Cc1ccccc1O2)Nc1ccc(C(=O)O)cc1` the Potency was inconclusive [inhibitor, partial curve, poor fit]. `COc1ccc2ccc3c(c2c1)N=C[C@]1(O3)N(C)c2ccccc2C1(C)C` was tested, and the Potency was inconclusive [inhibitor, single point]. In the case of `COc1ccccc1CNN`, the Potency is reported as inconclusive [inhibitor, single point]. For `COc1ccccc1OCCCCNCCO`, the Potency was “inactive”. `COc1ccc(NC(=O)C(CC(=O)O)C(C)c2ccccc2)cc1` (configuration not stated) was tested, and the Potency was inconclusive [inhibitor, single point]. `CCCNC(=O)C1CCC(Cn2c(=O)c3sccc3n(CC(=O)N3CCCC(C)C3)c2=O)CC1` (configuration not stated) was tested, and the Potency was “inactive”. `Nc1ccc(N2CCCC2)c(S(=O)(=O)Nc2cccc(C(F)(F)F)c2)c1` was tested, and the Potency was inconclusive [inhibitor, single point]. For `O=C(COc1cccc(Cl)c1)N1CCC(c2nc3ccccc3s2)CC1`, the Potency was “inactive”. For `CCCc1nc(C(C)(C)O)c(C(=O)OCc2oc(=O)oc2C)n1Cc1ccc(-c2ccccc2-c2nn[nH]n2)cc1`, the Potency was “inactive”. In the case of `C=CCNC(=O)CC1Nc2c3ccccc3nc(=S)n2C1=O` (configuration not stated), the Potency is reported as inconclusive [inhibitor, partial curve]. `O=S1(=O)CC(O)C(N=Nc2c(O)n(Cc3ccccc3)c3ccccc23)C1` (configuration not stated) was tested, and the Potency was inconclusive [inhibitor, single point]. `CCCC1S/C(=N/N=C/c2ccc(OC)cc2)N(Cc2ccc(OC)cc2)C1=O` (configuration not stated) was tested, and the Potency was inconclusive [inhibitor, single point]. `CCOc1cc(C(c2c(C)[nH][nH]c2=O)c2c(C)[nH][nH]c2=O)cc(Br)c1OC` was tested, and the Potency was inconclusive [inhibitor, single point]. `COc1ccccc1-n1nnnc1SCC(=O)NC1CC1` was tested, and the Potency was inconclusive [inhibitor, single point]. `Cc1ccccc1C(=O)OCc1cc(=O)n2c(C)csc2n1` was tested, and the Potency was “inactive”. With `CC1(C)CC(NCc2ccccc2)=CC(=S)N1` the Potency was “inactive”. In the case of `O=C(NCCC(=O)N1CCN(c2ccccn2)CC1)c1ccc([N+](=O)[O-])cc1`, the Potency is reported as “inactive”. For `COc1nc(-c2ccc(Cl)cc2)ccc1-c1noc(-c2cccs2)n1`, the Potency was inconclusive [inhibitor, partial curve, poor fit]. `Nc1nc(N)c2c(n1)CCCC2` was tested, and the Potency was inconclusive [inhibitor, single point]. For `COc1ccc(OC)c(NC(=O)COC(=O)COc2ccc(Nc3ccccc3)cc2)c1`, the Potency was inconclusive [inhibitor, partial curve, poor fit]. For `O=C(C=Cc1ccccn1)c1ccccc1`, the Potency was “inactive”.

Reference: PubChem BioAssay AID624170 (National Center for Advancing Translational Sciences (NCATS), 2012)
Potency is read from the fitted curve at half-maximal effect; tags tell the direction and shape of the fitted curve.
